The source gives no read counts; variants with many changes may rest on few reads.
B1: CPEB3 Ribozyme (parent)
chain: UAACAGGGGGCCACAGCAGAAGCGUUCACGUCGCAGCCCCUGUCAGAUUCUGGUGAAUCUGCGAAUUCUGCUGUAUAUCUC

Variants of: B1
Assay: self-cleavage, relative activity (ratio to wild type); higher = more cleavage; in vitro, sequencing
In short: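 Relative activity compares each variant's cleaved/total read fraction with that of the unmutated ribozyme. To get these fractions, barcoded CPEB3 ribozyme libraries from rounds of error-prone PCR were transcribed with T7 RNA polymerase for 5 hours at 37°C and then given 15 min of DNase I treatment before EDTA was added. The RNAs were reverse transcribed with template switching and sequenced on Illumina, and DNA sequencing linked barcodes to variants. A minimum of 5 reads applied, and three batches were averaged.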
A21G A35U U49C U51C A64U showed a self-cleavage of 0.12. With A21G A35U U76C A77G the self-cleavage was 0.22. For A21G A45C G53U, the self-cleavage was 0.17. In the case of A21G A45C U72A, the self-cleavage is reported as 0.1. A21G A45G A47U U51C U80A showed a self-cleavage of 0.41. For A21G A45G A56G, the self-cleavage was 0.32. Variant A21G A45G A57G U69C has a self-cleavage of 0.11. For A21G A45G A64U U80C, the self-cleavage was 0.12. For A21G A45G U48C U80C, the self-cleavage was 0.03. A21G A45G U51C G52A U54A showed a self-cleavage of 0.33. Work on A21G A45G U67C yielded a self-cleavage of 0.11. In the case of A21G A45U A56G, the self-cleavage is reported as 0.29. Variant A21G A45U A56G A75U has a self-cleavage of 0.18. Variant A21G A45U A57G U69A G73A has a self-cleavage of 0.28. A21G A45U C68U gave a self-cleavage of 0.31. For A21G A45U U48C U51C U60G A75G U78C, the self-cleavage was 0.06. For A21G A45U U54A U60C, the self-cleavage was 0.25. For A21G A45U U58C U60C U69A, the self-cleavage was 0.15. Variant A21G A45U U69C has a self-cleavage of 0.28. Variant A21G A47G A56G has a self-cleavage of 0.2. A21G A47G G55U U80A showed a self-cleavage of 0.74. Work on A21G A47G G63A U69C yielded a self-cleavage of 0.1. Variant A21G A47G U48C C50G A57G has a self-cleavage of 0.14. In the case of A21G A47G U48C U49A C59A A65G U80C, the self-cleavage is reported as 0.08. Variant A21G A47G U48C U49A U60C has a self-cleavage of 0.34. In the case of A21G A47G U49A, the self-cleavage is reported as 0.08. Work on A21G A47G U49C yielded a self-cleavage of 0.38. A21G A47G U51C showed a self-cleavage of 0.24. For A21G A47G U51C A65U C68G G73A C79A, the self-cleavage was 0.05. Variant A21G A47G U58C U66C has a self-cleavage of 1.12. A21G A47G U67C showed a self-cleavage of 0.1. For A21G A47U A65G, the self-cleavage was 0.16. With A21G A56G A64U the self-cleavage was 0.13. In the case of A21G A56G G63A A75U, the self-cleavage is reported as 0.3. A21G A56G U58C U76A gave a self-cleavage of 0.29. A21G A56G U67C gave a self-cleavage of 0.26. Variant A21G A56G U69A U80A has a self-cleavage of 0.13. Work on A21G A56G U69C yielded a self-cleavage of 0.11. A21G A56G U80C showed a self-cleavage of 0.47. Work on A21G A56U U60C U72A yielded a self-cleavage of 0.08. A21G A56U U66C gave a self-cleavage of 0.67. With A21G A57C G70A C71G U74C U80C the self-cleavage was 0.11. For A21G A57G A64G, the self-cleavage was 0.39. Variant A21G A57G A64G U74C U78C has a self-cleavage of 0.42. With A21G A57G C62G U80A the self-cleavage was 0.1. For A21G A57G U58C, the self-cleavage was 0.28. In the case of A21G A57G U69C U80C, the self-cleavage is reported as 0.17. Variant A21G A57G U74C has a self-cleavage of 1.07. Work on A21G A57G U76A yielded a self-cleavage of 0.59. A21G A57U U74A showed a self-cleavage of 0.81. A21G A64U U76A showed a self-cleavage of 0.16. Variant A21G A64U U78C has a self-cleavage of 0.2. A21G A65G A75C showed a self-cleavage of 0.24. In the case of A21G A65G A75U, the self-cleavage is reported as 0.22. With A21G A65G U69A the self-cleavage was 0.09. A21G A65G U72A showed a self-cleavage of 0.11. For A21G A65G U72G, the self-cleavage was 0.14. Variant A21G A65U G73U has a self-cleavage of 0.22. In the case of A21G A75U U76A A77G U78A, the self-cleavage is reported as 0.88. Work on A21G A75U U80A yielded a self-cleavage of 0.78. In the case of A21G C23A A35G U41G, the self-cleavage is reported as 0.28. For A21G C23G U25C A28U, the self-cleavage was 0.44. Variant A21G C23U C39G has a self-cleavage of 0.21. For A21G C23U C40G, the self-cleavage was 0.25. A21G C23U U26C C40U A65G A77G showed a self-cleavage of 0.07. With A21G C23U U67A U74A the self-cleavage was 0.18. For A21G C27A A35U A45G A56G U72A, the self-cleavage was 0.09. For A21G C27A A65G, the self-cleavage was 0.37. Variant A21G C27A U41A has a self-cleavage of 0.27. With A21G C27U A28G U41C G52A U54C U69A the self-cleavage was 0.1. Work on A21G C27U A35U U51C U54A U67C yielded a self-cleavage of 0.06. A21G C29A U43C U49C gave a self-cleavage of 0.24. Work on A21G C29G A56G yielded a self-cleavage of 0.11. With A21G C29U A47G U51C G61U A64G the self-cleavage was 0.06. With A21G C29U C62G A64G the self-cleavage was 0.07. For A21G C29U C62U, the self-cleavage was 0.05. With A21G C29U G30A A56G U58C the self-cleavage was 0.13. In the case of A21G C29U U41A C71U, the self-cleavage is reported as 0.15. Variant A21G C29U U60C U72C U78C has a self-cleavage of 0.12. Variant A21G C29U U78C has a self-cleavage of 0.15. In the case of A21G C32A G46U U51C G63U, the self-cleavage is reported as 0.1. In the case of A21G C32A U41C C81U, the self-cleavage is reported as 0.06. For A21G C32A U41C U60A, the self-cleavage was 0.15. Variant A21G C32A U43C U54C has a self-cleavage of 0.15. A21G C32A U51C A57G showed a self-cleavage of 0.19. Work on A21G C32G A47C U54G U69A U80G yielded a self-cleavage of 0.1. A21G C32G G33U A35C A57G U80C showed a self-cleavage of 0.09. With A21G C32G U49C A57G A65U U80C the self-cleavage was 0.03. For A21G C32U A45G U48C U72A, the self-cleavage was 0.05. A21G C32U U67C gave a self-cleavage of 0.15. For A21G C34A G70A U80C, the self-cleavage was 0.14. Work on A21G C34A U54G A57G U66C yielded a self-cleavage of 0.03. A21G C34U A35G U41C showed a self-cleavage of 0.2. Work on A21G C34U U66C yielded a self-cleavage of 0.16. Work on A21G C37G C40U U78C U80C yielded a self-cleavage of 0.08. Variant A21G C37G U78C U80C has a self-cleavage of 0.14. With A21G C37U C44U C71U A77G the self-cleavage was 0.06. Work on A21G C37U U41A G52C A64U yielded a self-cleavage of 0.12. With A21G C37U U41C C59U the self-cleavage was 0.34. In the case of A21G C38A A47G, the self-cleavage is reported as 0.19. Variant A21G C38A A56G C62U has a self-cleavage of 0.11. For A21G C38A U48C G63A U72A, the self-cleavage was 0.13. Work on A21G C38U U78A yielded a self-cleavage of 0.25. A21G C38U U78C gave a self-cleavage of 0.5. In the case of A21G C39A A47G U54C U66C A77U, the self-cleavage is reported as 0.07. Work on A21G C39G A45U yielded a self-cleavage of 0.31. In the case of A21G C39G U51C, the self-cleavage is reported as 0.31. A21G C39U A45U A57G U60A showed a self-cleavage of 0.11. With A21G C39U A57G the self-cleavage was 0.14. In the case of A21G C39U A77G, the self-cleavage is reported as 0.14. In the case of A21G C39U G42A U43C, the self-cleavage is reported as 0.08. Variant A21G C39U U60G has a self-cleavage of 0.13. A21G C40A U41A A47U gave a self-cleavage of 0.17. In the case of A21G C40A U54C A77U, the self-cleavage is reported as 0.06. For A21G C40A U66C C79A, the self-cleavage was 0.07. With A21G C40G A45G the self-cleavage was 0.11. With A21G C40G G46A the self-cleavage was 0.16. Work on A21G C40U A77G yielded a self-cleavage of 0.19. Variant A21G C44A A45G has a self-cleavage of 0.21. A21G C44A A45G U48C gave a self-cleavage of 0.23. A21G C50U U51A gave a self-cleavage of 0.65. Variant A21G C62U U76C has a self-cleavage of 0.11. In the case of A21G C68A U74C, the self-cleavage is reported as 0.21. With A21G G22A U26A A47G U58C the self-cleavage was 0.12. Work on A21G G22C U43C yielded a self-cleavage of 0.06. Work on A21G G22U C32U U43C U58C yielded a self-cleavage of 0.05. A21G G22U G33C G55U U72A showed a self-cleavage of 0.06. Variant A21G G24A A28G A45G has a self-cleavage of 0.14. For A21G G24A A28G U31C A45G, the self-cleavage was 0.24. Variant A21G G24A A57U A65G G70A U76C has a self-cleavage of 0.04. In the case of A21G G24A G36C U74C, the self-cleavage is reported as 0. Variant A21G G24A U26C U48C has a self-cleavage of 0.17. Variant A21G G24A U26C U69A has a self-cleavage of 0.11. With A21G G24A U31C U51A the self-cleavage was 0.15. For A21G G24A U41A U51A, the self-cleavage was 0.08. With A21G G24A U43A U51C U60C U74A U78C the self-cleavage was 0.05. Variant A21G G24A U43C U54A C79U has a self-cleavage of 0.05. A21G G24A U51A C59A A64G U72C gave a self-cleavage of 0.09. In the case of A21G G24A U60A C62A U74A, the self-cleavage is reported as 0.2. With A21G G24A U72A U78C C81U the self-cleavage was 0.03. Work on A21G G24U A65C U67C yielded a self-cleavage of 0.16. Work on A21G G24U U25C yielded a self-cleavage of 0.12. In the case of A21G G30A A56U U78C, the self-cleavage is reported as 0.19. Variant A21G G30A U60C U72G A77G has a self-cleavage of 0.12. In the case of A21G G30U A35U U43C C62A A64U, the self-cleavage is reported as 0.08. A21G G30U U41C gave a self-cleavage of 0.22. A21G G30U U51C U78C gave a self-cleavage of 0.06. With A21G G33A A47G U48C U51A A57G the self-cleavage was 0.23. A21G G33A A56G showed a self-cleavage of 0.14. A21G G33A U41C A45U U80A showed a self-cleavage of 0.2. In the case of A21G G33A U51C U60C U76A, the self-cleavage is reported as 0.05. In the case of A21G G33U U43C U69A C71G U80G C81A, the self-cleavage is reported as 0.04. With A21G G33U U49C U60C the self-cleavage was 0.1. In the case of A21G G33U U54C U66C U78C, the self-cleavage is reported as 0.07. A21G G36A U41C U49A gave a self-cleavage of 0.06. Work on A21G G36U A57G U60A yielded a self-cleavage of 0.1. A21G G42A A47G A64G A75G showed a self-cleavage of 0.04. Variant A21G G42U U49C C59U has a self-cleavage of 0.04. In the case of A21G G52A U58A C59A U74A, the self-cleavage is reported as 0.2. A21G G52A U60A showed a self-cleavage of 0.14. Work on A21G G52A U74C yielded a self-cleavage of 1.07. Variant A21G G52A U80C has a self-cleavage of 0.92. With A21G G53A A77U the self-cleavage was 0.72. For A21G G53C U72C, the self-cleavage was 1.08. A21G G53C U72C A77G showed a self-cleavage of 0.68. Work on A21G G53U A56G A77G yielded a self-cleavage of 0.79. Variant A21G G53U A64U A65G has a self-cleavage of 0.12.
